Test results as given in paper doi:10.1101/2025.03.27.645651 (bioRxiv, 2025).

Biological target: the molecule itself
Assay: SEC-SAXS

B1: G3BP1 NTF2LA (NTF2L and the adjacent IDR1 region, […]) (domain or fragment)
chain: not shown
B1: binds.
